# Measured values as given in the supplement of paper PMC8728848.
# The list shows a part of the results.
# B1: PitA (Streptococcus oralis), G3F8D8 (protein)
# chain: MNIRFDFKKVQIIARRLVTLLAILFLCAPISLLNADSTTEPQTTLHKTITPISGQDDKYELSLDITSKLGTETQTDPLDVVLVADLSGSMQNQDVQSFDGRTISRIDALKNTLRGTNGRKGLIDTILSNSNNRLSMVGFGGKIDNKKVDQYWDGNKWRLFRPYWPYERMTKYYDGVSPWDDANTILGWSNNARAAKTAVYNMSIAGGNSIGTESGIGTGTNIGAGLTLANQLMGSARSNAKKVVILLSDGFANMVYDANGYTIYNYNNEDPNIETAPQWFWDRLNNNLNSLSYSLAPTLDGFYSIKFRYSNNVDSITSLQYYMRQHNASIPNEIFSANDEDQLRDSFKDITDKILPLGIHHVSIKDVLSKYVQLLPNGSSEFRVVKEKDGSSEILIENQVTFDTKTTSEGLVEVTAKFSPNYSLEDGARYVLKFTVTSSQEALDAIAGDKKLEAGDAEGSDVNKLYSNKGASVTYSYGIGNSQTKTKEYSDNPTFKPSDPLTVPVEVEWQGVTGARTVITADQPSNVELKLVQKNKNGGSDNQDYRKTNVNVSKNVSNETRNFEKVAKGYQYDLIAPDVPAFTKEIKNVGTESKPSFKVIYKQLPSLTIKKVLEAENNLNKEFRIKVKLTSPDSKPLNGTFGEITVVNGEAEIRVEKRKRWEGILSYLPRGTHYKVEEEAASTNGYHVTYENQEGDLNKDETSIVTNHKLPSLSVTKKVTGVFANLLKSFKITINIRDAQNSPLNGTYTATVNNKRTPLQFTNGRASIDLNKDQTIKIYGLPLDSHYTVEEESNSSRGYQVSYENQEGKLDGDKSATVTNNKNSVPETGVDFLSSTLMLGIILPLGGIFFTILLGYLVVHRRK
# How the values were obtained:
# Experiment in all cases: glycan array binding signal (z-score within array); higher = stronger binding
# Conditions in all cases: glycan notation: IUPAC condensed, linker removed
# [1] = target: GlcNAc(b1-3)Gal(b1-3)GalNAc
# In short: (§1)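 Glycan array data were curated from 3228 arrays in the Consortium for Functional Glycomics database and kept only where the protein sequence was available. Glycan names were converted to IUPAC-condensed notation, and columns mapping to the same glycan were averaged. The binding signal is a within-array Z-score, averaged across arrays of the same protein sequence at different concentrations or buffers and across linkers. Negative Z-scores can be read as non-binding.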
# GlcNAc(b1-3)Gal(b1-4)Glc = target: GlcNAc(b1-3)Gal(b1-4)Glc
# In short: as §1
# [2] = target: GlcNAc(b1-3)Gal(b1-4)GlcNAc
# In short: as §1
# [3] = target: GlcNAc(b1-3)Gal(b1-4)GlcNAc(b1-3)Gal(b1-4)GlcNAc
# In short: as §1
# GlcNAc(b1-3)GalNAc = target: GlcNAc(b1-3)GalNAc
# In short: as §1
# GlcNAc(b1-3)Man = target: GlcNAc(b1-3)Man
# In short: as §1
# [4] = target: GlcNAc(b1-3)[GlcNAc(b1-4)][GlcNAc(b1-6)]GlcNAc
# In short: as §1
# [5] = target: GlcNAc(b1-3)[GlcNAc(b1-6)]Gal(b1-4)GlcNAc
# In short: as §1
# [6] = target: GlcNAc(b1-3)[GlcNAc(b1-6)]GalNAc
# In short: as §1
# [7] = target: GlcNAc(b1-4)Gal(b1-4)GlcNAc
# In short: as §1
# GlcNAc(b1-4)GlcNAc = target: GlcNAc(b1-4)GlcNAc
# In short: as §1
# [8] = target: GlcNAc(b1-4)GlcNAc(b1-4)GlcNAc
# In short: as §1
# [9] = target: GlcNAc(b1-4)GlcNAc(b1-4)GlcNAc(b1-4)GlcNAc(b1-4)GlcNAc
# In short: as §1
# [10] = target: GlcNAc(b1-4)GlcNAc(b1-4)GlcNAc(b1-4)GlcNAc(b1-4)GlcNAc(b1-4)GlcNAc
# In short: as §1
# [11] = target: GlcNAc(b1-4)[GlcNAc(b1-6)]GalNAc
# In short: as §1
# [12] = target: GlcNAc(b1-6)Gal(b1-4)GlcNAc
# In short: as §1
# GlcNAc(b1-6)GalNAc = target: GlcNAc(b1-6)GalNAc
# In short: as §1
# GlcNAc3Prop(b1-4)GlcNAc = target: GlcNAc3Prop(b1-4)GlcNAc
# In short: as §1
# [13] = target: GlcNAc6S(b1-3)Gal(b1-4)GlcNAc
# In short: as §1
# Kdn(a2-3)Gal(b1-3)GalNAc = target: Kdn(a2-3)Gal(b1-3)GalNAc
# In short: as §1
# Kdn(a2-3)Gal(b1-3)GlcNAc = target: Kdn(a2-3)Gal(b1-3)GlcNAc
# In short: as §1
# Kdn(a2-3)Gal(b1-4)Glc = target: Kdn(a2-3)Gal(b1-4)Glc
# In short: as §1
# Kdn(a2-3)Gal(b1-4)GlcNAc = target: Kdn(a2-3)Gal(b1-4)GlcNAc
# In short: as §1
# [14] = target: Kdn(a2-3)Gal(b1-4)[Fuc(a1-3)]GlcNAc
# In short: as §1
# Kdn(a2-6)Gal(b1-4)GlcNAc = target: Kdn(a2-6)Gal(b1-4)GlcNAc
# In short: as §1
# [15] = target: Man(a1-2)Man(a1-2)Man(a1-3)Man
# In short: as §1
# [16] = target: Man(a1-2)Man(a1-2)Man(a1-6)[Man(a1-3)]Man
# In short: as §1
# Man(a1-2)Man(a1-3)Man = target: Man(a1-2)Man(a1-3)Man
# In short: as §1
# [17] = target: Man(a1-2)Man(a1-3)[Man(a1-2)Man(a1-6)]Man
# In short: as §1
# [18] = target: Man(a1-2)Man(a1-3)[Man(a1-2)Man(a1-6)]Man(a1-6)[Man(a1-2)Man(a1-2)Man(a1-3)]Man
# In short: as §1
# [19] = target: Man(a1-2)Man(a1-3)[Man(a1-2)Man(a1-6)]Man(a1-6)[Man(a1-2)Man(a1-2)Man(a1-3)]Man(b1-4)GlcNAc(b1-4)GlcNAc
# In short: as §1
# [20] = target: Man(a1-2)Man(a1-3)[Man(a1-6)]Man(a1-6)[Man(a1-2)Man(a1-3)]Man(b1-4)GlcNAc(b1-4)GlcNAc
# In short: as §1
# [21] = target: Man(a1-2)Man(a1-6)[Man(a1-3)]Man(a1-6)[Man(a1-2)Man(a1-2)Man(a1-3)]Man
# In short: as §1
# [22] = target: Man(a1-2)Man(a1-6)[Man(a1-3)]Man(a1-6)[Man(a1-2)Man(a1-2)Man(a1-3)]Man(b1-4)GlcNAc(b1-4)GlcNAc
# In short: as §1
# Man(a1-3)[Man(a1-6)]Man = target: Man(a1-3)[Man(a1-6)]Man
# In short: as §1
# [23] = target: Man(a1-3)[Man(a1-6)]Man(a1-6)[Man(a1-2)Man(a1-3)]Man(b1-4)GlcNAc(b1-4)GlcNAc
# In short: as §1
# [24] = target: Man(a1-3)[Man(a1-6)]Man(a1-6)[Man(a1-3)]Man
# In short: as §1
# [25] = target: Man(a1-3)[Man(a1-6)]Man(a1-6)[Man(a1-3)]Man(b1-4)GlcNAc(b1-4)GlcNAc
# In short: as §1
# [26] = target: Man(a1-3)[Man(a1-6)]Man(b1-4)GlcNAc(b1-4)GlcNAc
# In short: as §1
# [27] = target: Man(a1-3)[Man(a1-6)]Man(b1-4)GlcNAc(b1-4)[Fuc(a1-6)]GlcNAc
# In short: as §1
# Man(a1-6)Man = target: Man(a1-6)Man
# In short: as §1
# Man(b1-4)GlcNAc = target: Man(b1-4)GlcNAc
# In short: as §1
# Neu5Ac(a2-3)Gal = target: Neu5Ac(a2-3)Gal
# In short: as §1
# [28] = target: Neu5Ac(a2-3)Gal(b1-3)GalNAc
# In short: as §1
# [29] = target: Neu5Ac(a2-3)Gal(b1-3)GalNAc(b1-3)Gal(a1-4)Gal(b1-4)Glc
# In short: as §1
# [30] = target: Neu5Ac(a2-3)Gal(b1-3)GalNAc(b1-4)[Neu5Ac(a2-3)]Gal(b1-4)Glc
# In short: as §1
# [31] = target: Neu5Ac(a2-3)Gal(b1-3)GalNAc(b1-4)[Neu5Ac(a2-8)Neu5Ac(a2-3)]Gal(b1-4)Glc
# In short: as §1
# [32] = target: Neu5Ac(a2-3)Gal(b1-3)GalNAc6S
# In short: as §1
# [33] = target: Neu5Ac(a2-3)Gal(b1-3)GlcNAc
# In short: as §1
# [34] = target: Neu5Ac(a2-3)Gal(b1-3)GlcNAc(b1-2)Man(a1-3)[GlcNAc(b1-4)][Neu5Ac(a2-3)Gal(b1-3)GlcNAc(b1-2)Man(a1-6)]Man(b1-4)GlcNAc(b1-4)GlcNAc
# In short: as §1
# [35] = target: Neu5Ac(a2-3)Gal(b1-3)GlcNAc(b1-3)Gal(b1-3)GlcNAc
# In short: as §1
# [36] = target: Neu5Ac(a2-3)Gal(b1-3)GlcNAc(b1-3)Gal(b1-4)GlcNAc
# In short: as §1
# [37] = target: Neu5Ac(a2-3)Gal(b1-3)GlcNAc(b1-3)GalNAc
# In short: as §1
# [38] = target: Neu5Ac(a2-3)Gal(b1-3)GlcNAc(b1-6)GalNAc
# In short: as §1
# [39] = target: Neu5Ac(a2-3)Gal(b1-3)GlcNAc6S
# In short: as §1
# [40] = target: Neu5Ac(a2-3)Gal(b1-3)[Fuc(a1-4)]GlcNAc
# In short: as §1
# [41] = target: Neu5Ac(a2-3)Gal(b1-3)[Fuc(a1-4)]GlcNAc(b1-3)Gal(b1-3)[Fuc(a1-4)]GlcNAc
# In short: as §1
# [42] = target: Neu5Ac(a2-3)Gal(b1-3)[Fuc(a1-4)]GlcNAc(b1-3)Gal(b1-4)[Fuc(a1-3)]GlcNAc
# In short: as §1
# [43] = target: Neu5Ac(a2-3)Gal(b1-3)[Neu5Ac(a2-3)Gal(b1-4)]GlcNAc
# In short: as §1
# [44] = target: Neu5Ac(a2-3)Gal(b1-3)[Neu5Ac(a2-6)]GalNAc
# In short: as §1
binder,measurement,setting,value
B1,glycan array binding signal (z-score),[1],0.506
same,glycan array binding signal (z-score),GlcNAc(b1-3)Gal(b1-4)Glc,0.062
same,glycan array binding signal (z-score),[2],-0.199
same,glycan array binding signal (z-score),[3],-0.259
same,glycan array binding signal (z-score),GlcNAc(b1-3)GalNAc,-0.343
same,glycan array binding signal (z-score),GlcNAc(b1-3)Man,-0.414
same,glycan array binding signal (z-score),[4],0.014
same,glycan array binding signal (z-score),[5],-0.472
same,glycan array binding signal (z-score),[6],-0.392
same,glycan array binding signal (z-score),[7],-0.216
same,glycan array binding signal (z-score),GlcNAc(b1-4)GlcNAc,-0.116
same,glycan array binding signal (z-score),[8],0.175
same,glycan array binding signal (z-score),[9],-0.206
same,glycan array binding signal (z-score),[10],0.39
same,glycan array binding signal (z-score),[11],-0.605
same,glycan array binding signal (z-score),[12],0.902
same,glycan array binding signal (z-score),GlcNAc(b1-6)GalNAc,0.138
same,glycan array binding signal (z-score),GlcNAc3Prop(b1-4)GlcNAc,-0.175
same,glycan array binding signal (z-score),[13],-0.18
same,glycan array binding signal (z-score),Kdn(a2-3)Gal(b1-3)GalNAc,-0.359
same,glycan array binding signal (z-score),Kdn(a2-3)Gal(b1-3)GlcNAc,0.352
same,glycan array binding signal (z-score),Kdn(a2-3)Gal(b1-4)Glc,-0.512
same,glycan array binding signal (z-score),Kdn(a2-3)Gal(b1-4)GlcNAc,-0.184
same,glycan array binding signal (z-score),[14],1.05
same,glycan array binding signal (z-score),Kdn(a2-6)Gal(b1-4)GlcNAc,-0.377
same,glycan array binding signal (z-score),[15],1.92
same,glycan array binding signal (z-score),[16],-0.633
same,glycan array binding signal (z-score),Man(a1-2)Man(a1-3)Man,0.592
same,glycan array binding signal (z-score),[17],-0.583
same,glycan array binding signal (z-score),[18],-0.327
same,glycan array binding signal (z-score),[19],-0.151
same,glycan array binding signal (z-score),[20],-0.351
same,glycan array binding signal (z-score),[21],-0.267
same,glycan array binding signal (z-score),[22],-0.223
same,glycan array binding signal (z-score),Man(a1-3)[Man(a1-6)]Man,-0.627
same,glycan array binding signal (z-score),[23],-0.626
same,glycan array binding signal (z-score),[24],-0.513
same,glycan array binding signal (z-score),[25],0.006
same,glycan array binding signal (z-score),[26],-0.534
same,glycan array binding signal (z-score),[27],0.224
same,glycan array binding signal (z-score),Man(a1-6)Man,-0.46
same,glycan array binding signal (z-score),Man(b1-4)GlcNAc,-0.021
same,glycan array binding signal (z-score),Neu5Ac(a2-3)Gal,-0.309
same,glycan array binding signal (z-score),[28],-0.302
same,glycan array binding signal (z-score),[29],-0.418
same,glycan array binding signal (z-score),[30],-0.417
same,glycan array binding signal (z-score),[31],-0.214
same,glycan array binding signal (z-score),[32],-0.409
same,glycan array binding signal (z-score),[33],-0.534
same,glycan array binding signal (z-score),[34],0.166
same,glycan array binding signal (z-score),[35],-0.709
same,glycan array binding signal (z-score),[36],-0.381
same,glycan array binding signal (z-score),[37],-0.148
same,glycan array binding signal (z-score),[38],-0.42
same,glycan array binding signal (z-score),[39],-0.57
same,glycan array binding signal (z-score),[40],-0.535
same,glycan array binding signal (z-score),[41],0.559
same,glycan array binding signal (z-score),[42],0.383
same,glycan array binding signal (z-score),[43],-0.251
same,glycan array binding signal (z-score),[44],0.755
